This is an account of results in publication PMC4455107.

By UniProt entry, the sequences of proteins in these tests, tags left out.
UniProt Q01650: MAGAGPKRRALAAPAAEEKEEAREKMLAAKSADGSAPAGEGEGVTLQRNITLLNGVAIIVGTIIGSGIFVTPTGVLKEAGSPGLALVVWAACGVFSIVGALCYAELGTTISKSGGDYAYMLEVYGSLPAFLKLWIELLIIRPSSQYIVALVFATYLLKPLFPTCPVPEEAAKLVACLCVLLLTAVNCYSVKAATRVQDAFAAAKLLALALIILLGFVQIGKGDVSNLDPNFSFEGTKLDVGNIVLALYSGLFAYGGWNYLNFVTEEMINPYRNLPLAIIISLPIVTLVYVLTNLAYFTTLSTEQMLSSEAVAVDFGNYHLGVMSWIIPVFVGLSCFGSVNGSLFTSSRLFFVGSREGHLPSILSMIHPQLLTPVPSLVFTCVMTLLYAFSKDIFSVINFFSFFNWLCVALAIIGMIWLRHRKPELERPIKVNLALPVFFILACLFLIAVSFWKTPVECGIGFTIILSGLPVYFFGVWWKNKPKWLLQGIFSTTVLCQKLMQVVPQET

These are yes or no findings as the source states them, for the method shown. Binding seen in cells or lysates may run through a third protein. Some results given as binding are weak or reduced against the parent protein; the word gives no strength. For some assays here: Tags and fused reporters may be left off the sequences shown.

For experiment [1], the target named is T1, HA-ΔN-LAPTM4b (amino acids 21–226) (human) (UniProt Q86VI4).
T1 sequence: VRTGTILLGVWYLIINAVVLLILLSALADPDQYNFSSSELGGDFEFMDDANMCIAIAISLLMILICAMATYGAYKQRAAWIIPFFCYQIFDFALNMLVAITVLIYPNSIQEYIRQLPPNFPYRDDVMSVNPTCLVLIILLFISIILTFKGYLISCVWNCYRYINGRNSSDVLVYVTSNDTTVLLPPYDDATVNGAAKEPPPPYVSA
Nature of the experiment: co-IP; HeLa cells co-transfected; IP of HA-LAPTM4b (wild type or ΔN, ΔC, ΔNΔC) with anti-HA antibody coupled to Protein G Sepharose, immunoblot with anti-mCherry (SNAT2, ASCT2) or anti-FLAG (4F2hc).

Experiment [2] has as its target T2, HA-ΔNΔC-LAPTM4b (amino acids 21–181) (human) (UniProt Q86VI4).
T2 sequence: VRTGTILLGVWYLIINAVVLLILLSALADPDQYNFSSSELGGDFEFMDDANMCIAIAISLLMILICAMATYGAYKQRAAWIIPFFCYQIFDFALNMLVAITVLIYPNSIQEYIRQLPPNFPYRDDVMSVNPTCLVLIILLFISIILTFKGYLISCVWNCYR
The experiment is described as above.

The target of experiment [3] is T3, HA-ΔC-LAPTM4b (amino acids 1–181) (human) (UniProt Q86VI4).
T3 sequence: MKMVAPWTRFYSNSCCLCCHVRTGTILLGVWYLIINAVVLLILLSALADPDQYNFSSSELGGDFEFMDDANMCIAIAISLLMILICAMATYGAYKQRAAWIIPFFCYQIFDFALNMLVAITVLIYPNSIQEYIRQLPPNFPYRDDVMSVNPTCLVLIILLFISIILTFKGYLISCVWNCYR
The experiment is described as above.

Experiment [4] addresses T4, HA-LAPTM4b (lysosomal-associated transmembrane protein 4b, 24-kDa isoform, wild type) (human) (UniProt Q86VI4).
T4 sequence: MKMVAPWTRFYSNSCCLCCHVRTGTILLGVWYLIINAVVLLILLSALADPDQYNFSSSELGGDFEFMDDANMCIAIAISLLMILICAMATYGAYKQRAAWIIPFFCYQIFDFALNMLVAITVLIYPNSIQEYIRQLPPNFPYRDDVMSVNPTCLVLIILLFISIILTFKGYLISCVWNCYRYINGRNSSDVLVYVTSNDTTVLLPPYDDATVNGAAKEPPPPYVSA
The experiment is described as above.

For experiment [5], the target named is endogenous LAT1 (SLC7A5) (human (endogenous in HeLa)) (UniProt Q01650). The experiment is described as follows: co-IP; endogenous proteins; IP of LAT1 from 1.5 mg of cleared HeLa cell lysate, immunoblot with anti-LAPTM4b antibodies.
The target in experiment [6] is Flag-4F2hc (CD98, SLC3A2) (human) (UniProt P08195). Nature of the experiment: co-IP; HeLa cells co-transfected with HA-LAPTM4b and FLAG-LAT1 or FLAG-4F2hc; IP from 1 mg cleared lysate with anti-Flag M2 affinity beads, immunoblot with anti-HA; the interaction was not dependent on amino-acid stimulation (Supplementary Fig. 1e,f). (In general: In western blotting, separated proteins are transferred to a membrane and probed.)

Experiment [7] addresses Flag-LAT1 (SLC7A5) (human) (UniProt Q01650). The experiment is described as above.

On to “Flag-4F2hc (CD98, SLC3A2) (from UniProt P08195 1-529)”, for which the binding result in experiment [1], in experiment [2] and in experiment [3] was “binds” throughout.

B1: mCherry-SNAT2 (SLC38A2) (protein, UniProt Q96QD8 1-506)
chain: MKKAEMGRFSISPDEDSSSYSSNSDFNYSYPTKQAALKSHYADVDPENQNFLLESNLGKKKYETEFHPGTTSFGMSVFNLSNAIVGSGILGLSYAMANTGIALFIILLTFVSIFSLYSVHLLLKTANEGGSLLYEQLGYKAFGLVGKLAASGSITMQNIGAMSSYLFIVKYELPLVIQALTNIEDKTGLWYLNGNYLVLLVSLVVILPLSLFRNLGYLGYTSGLSLLCMVFFLIVVICKKFQVPCPVEAALIINETINTTLTQPTALVPALSHNVTENDSCRPHYFIFNSQTVYAVPILIFSFVCHPAVLPIYEELKDRSRRRMMNVSKISFFAMFLMYLLAALFGYLTFYEHVESELLHTYSSILGTDILLLIVRLAVLMAVTLTVPVVIFPIRSSVTHLLCASKDFSWWRHSLITVSILAFTNLLVIFVPTIRDIFGFIGASAASMLIFILPSAFYIKLVKKEPMKSVQKIGALFFLLSGVLVMTGSMALIVLDWVHNAPGGGH
For the molecule B1, the binding result in experiment [4] is “no binding”.

B2: endogenous LAPTM4b (protein, UniProt Q86VI4 1-317)
chain: MTSRTRVTWPSPPRPLPVPAAAAVAFGAKGTDPAEARSSRGIEEAGPRAHGRAGREPERRRSRQQRRGGLQARRSTLLKTCARARATAPGAMKMVAPWTRFYSNSCCLCCHVRTGTILLGVWYLIINAVVLLILLSALADPDQYNFSSSELGGDFEFMDDANMCIAIAISLLMILICAMATYGAYKQRAAWIIPFFCYQIFDFALNMLVAITVLIYPNSIQEYIRQLPPNFPYRDDVMSVNPTCLVLIILLFISIILTFKGYLISCVWNCYRYINGRNSSDVLVYVTSNDTTVLLPPYDDATVNGAAKEPPPPYVSA
As for B2, in experiment [5], the binding result was “binds”.

B3: HA-LAPTM4b (lysosomal-associated transmembrane protein 4b, 24-kDa isoform, wild type) (protein, UniProt Q86VI4-2 1-226)
chain: T4 sequence
Turning to B3, the binding entry in experiment [6] and in experiment [7] was “binds” in each case.

B4: mCherry-ASCT2 (SLC1A5) (protein, UniProt Q15758 1-541)
chain: MVADPPRDSKGLAAAEPTANGGLALASIEDQGAAAGGYCGSRDQVRRCLRANLLVLLTVVAVVAGVALGLGVSGAGGALALGPERLSAFVFPGELLLRLLRMIILPLVVCSLIGGAASLDPGALGRLGAWALLFFLVTTLLASALGVGLALALQPGAASAAINASVGAAGSAENAPSKEVLDSFLDLARNIFPSNLVSAAFRSYSTTYEERNITGTRVKVPVGQEVEGMNILGLVVFAIVFGVALRKLGPEGELLIRFFNSFNEATMVLVSWIMWYAPVGIMFLVAGKIVEMEDVGLLFARLGKYILCCLLGHAIHGLLVLPLIYFLFTRKNPYRFLWGIVTPLATAFGTSSSSATLPLMMKCVEENNGVAKHISRFILPIGATVNMDGAALFQCVAAVFIAQLSQQSLDFVKIITILVTATASSVGAAGIPAGGVLTLAIILEAVNLPVDHISLILAVDWLVDRSCTVLNVEGDALGAGLLQNYVDRTESRSTEPELIQVKSELPLDPLPVPTEEGNPLLKHYRGPAGDATVASEKESVM
For the molecule B4, the binding entry in experiment [4] is given as “no binding”.
